# Experimental data taken from patent US11000038B2, “Pyridone compounds and agricultural and horticultural fungicides containing the same as active ingredients” (priority 2017, dated 2021).
# Tests used:
# [1] = system: barley powdery mildew fungi (Blumeria graminis f. sp. hordei); assay: Test Example D: barley powdery mildew, spray treatment of barley plants; conditions: barley powdery mildew, spray treatment of barley plants
# [2] = system: grape downy mildew fungus (Plasmopara viticola); assay: Test Example G: grape downy mildew, spray treatment of grape plants; conditions: grape downy mildew, 250 ppm spray (2.5 ml/pot), 7 to 10 days after inoculation
# [3] = system: cabbage Alternaria sooty spot fungi (Alternaia brassicicola); assay: Test Example C: cabbage Alternaria sooty spot, spray treatment of cabbage plants; format: in vivo; conditions: cabbage Alternaria sooty spot, spray treatment of cabbage plants
# From the text: [Test Example C] Cabbage Alternaria Sooty Spot
# Test plants (cabbage variety: Shikidori) were cultivated until the cotyledons extended after the sowing of seeds.
# <Control Value> Control value=100{1−(n/3)}
# [4] = system: gray mold fungi (Botrytis cinerea); assay: Test Example B: tomato gray mold, spray treatment of tomato plants; conditions: tomato gray mold, spray treatment of tomato plants
# [5] = system: wheat brown rust fungi (Puccinia recondita); assay: Test Example E: wheat brown rust, spray treatment of wheat plants; format: in vivo; conditions: wheat brown rust, spray treatment of wheat plants
Structure (SMILES),Test D control value [1],Test G control value [2],Test C control value [3],Test B control value [4],Test E control value [5]
CCOCOc1ccc(C)c(-n2cc(Cl)c(=O)c(Cl)c2-c2c(F)cc(OC)cc2F)c1 [Compound 304],H (H shows the control value of more than 50%),H (H shows the control value of more than 50%),H (H shows the control value of more than 50%),H (H shows the control value of more than 50%),H (H shows the control value of more than 50%)
Cc1cccc(C)c1-n1cc(Cl)c(=O)c(Cl)c1-c1c(F)cc(F)cc1F [Compound 305],L (L shows the control value of 50% or less),L (L shows the control value of 50% or less),L (L shows the control value of 50% or less),H (H shows the control value of more than 50%),L (L shows the control value of 50% or less)
Cc1cccc(C)c1-n1cc(Cl)c(=O)c(Br)c1-c1c(F)cc(F)cc1F [Compound 306],L (L shows the control value of 50% or less),L (L shows the control value of 50% or less),L (L shows the control value of 50% or less),L (L shows the control value of 50% or less),H (H shows the control value of more than 50%)
Cc1cccc(Cl)c1-n1cc(Br)c(=O)c(Cl)c1-c1c(F)cc(F)cc1F [Compound 307],L (L shows the control value of 50% or less),L (L shows the control value of 50% or less),L (L shows the control value of 50% or less),H (H shows the control value of more than 50%),H (H shows the control value of more than 50%)
Cc1cccc(Cl)c1-n1cc(Br)c(=O)c(Br)c1-c1c(F)cc(F)cc1F [Compound 308],L (L shows the control value of 50% or less),L (L shows the control value of 50% or less),L (L shows the control value of 50% or less),H (H shows the control value of more than 50%),H (H shows the control value of more than 50%)
Cc1ccc(C(F)(F)F)cc1-n1cc(Br)c(=O)c(Cl)c1-c1c(F)cc(F)cc1F [Compound 309],L (L shows the control value of 50% or less),L (L shows the control value of 50% or less),H (H shows the control value of more than 50%),H (H shows the control value of more than 50%),H (H shows the control value of more than 50%)
Cc1ccc(C(F)(F)F)cc1-n1cc(Br)c(=O)c(Br)c1-c1c(F)cc(F)cc1F [Compound 310],L (L shows the control value of 50% or less),L (L shows the control value of 50% or less),L (L shows the control value of 50% or less),H (H shows the control value of more than 50%),H (H shows the control value of more than 50%)
CCc1c(-c2c(F)cc(OC)cc2F)n(-c2ccccc2C)cc(C)c1=O [Compound 311],H (H shows the control value of more than 50%),H (H shows the control value of more than 50%),H (H shows the control value of more than 50%),H (H shows the control value of more than 50%),H (H shows the control value of more than 50%)
CCc1c(-c2c(F)cc(F)cc2F)n(-c2ccccc2C)cc(C(F)(F)F)c1=O [Compound 312],H (H shows the control value of more than 50%),L (L shows the control value of 50% or less),H (H shows the control value of more than 50%),H (H shows the control value of more than 50%),H (H shows the control value of more than 50%)
COc1ccc(C)c(-n2cc(C)c(=O)c(C)c2-c2c(F)cc(F)cc2F)c1 [Compound 313],H (H shows the control value of more than 50%),H (H shows the control value of more than 50%),H (H shows the control value of more than 50%),H (H shows the control value of more than 50%),H (H shows the control value of more than 50%)
Cc1ccc(O)cc1-n1cc(C)c(=O)c(C)c1-c1c(F)cc(F)cc1F [Compound 314],H (H shows the control value of more than 50%),H (H shows the control value of more than 50%),H (H shows the control value of more than 50%),H (H shows the control value of more than 50%),H (H shows the control value of more than 50%)
COCCOc1ccc(C)c(-n2cc(C)c(=O)c(C)c2-c2c(F)cc(F)cc2F)c1 [Compound 315],H (H shows the control value of more than 50%),L (L shows the control value of 50% or less),H (H shows the control value of more than 50%),H (H shows the control value of more than 50%),H (H shows the control value of more than 50%)
COCCOc1ccc(C)c(-n2cc(C)c(=O)c(C)c2-c2c(F)cc(OC)cc2F)c1 [Compound 316],H (H shows the control value of more than 50%),L (L shows the control value of 50% or less),H (H shows the control value of more than 50%),H (H shows the control value of more than 50%),H (H shows the control value of more than 50%)
CCc1cn(-c2ccccc2C)c(-c2c(F)cc(F)cc2F)c(CC)c1=O [Compound 317],H (H shows the control value of more than 50%),H (H shows the control value of more than 50%),H (H shows the control value of more than 50%),H (H shows the control value of more than 50%),H (H shows the control value of more than 50%)
Cc1cccc(Cl)c1-n1cc(Cl)c(=O)c(Br)c1-c1c(F)cc(F)cc1F [Compound 318],L (L shows the control value of 50% or less),L (L shows the control value of 50% or less),H (H shows the control value of more than 50%),L (L shows the control value of 50% or less),L (L shows the control value of 50% or less)
Cc1cccc(Cl)c1-n1cc(Cl)c(=O)c(Cl)c1-c1c(F)cc(F)cc1F [Compound 319],L (L shows the control value of 50% or less),L (L shows the control value of 50% or less),L (L shows the control value of 50% or less),L (L shows the control value of 50% or less),H (H shows the control value of more than 50%)
Cc1c(-n2cc(Br)c(=O)c(Cl)c2-c2c(F)cc(F)cc2F)cccc1[N+](=O)[O-] [Compound 320],L (L shows the control value of 50% or less),L (L shows the control value of 50% or less),H (H shows the control value of more than 50%),H (H shows the control value of more than 50%),H (H shows the control value of more than 50%)
Cc1c(-n2cc(Br)c(=O)c(Br)c2-c2c(F)cc(F)cc2F)cccc1[N+](=O)[O-] [Compound 321],L (L shows the control value of 50% or less),L (L shows the control value of 50% or less),H (H shows the control value of more than 50%),L (L shows the control value of 50% or less),H (H shows the control value of more than 50%)
